# Test results as given in the antibiotic and cytotoxicity screens of Wong et al. (2023).
# Some of the results follow.
# Assays:
# HSkMC = human skeletal muscle cells; experiment: cytotoxicity call (relative viability < 0.9); conditions: 10 µM
# HepG2 = experiment: cytotoxicity call (relative viability < 0.9); conditions: 10 µM
# S. aureus RN4220 = experiment: growth inhibition call (relative growth <= 0.2); conditions: 50 µM
SMILES,cytotoxicity call (HSkMC),cytotoxicity call (HepG2),growth inhibition call (S. aureus RN4220)
CC(C)(C)c1ccc2c(c1)O[C@H](C(=O)N/N=C/c1ccc[nH]1)CO2.CC(C)(C)c1ccc2c(c1)O[C@H](C(=O)N/N=C\c1ccc[nH]1)CO2,inactive,inactive,inactive
COc1ccc(S(=O)(=O)N(C)C[C@H]2Oc3ccc(NS(=O)(=O)c4c(C)noc4C)cc3C(=O)N([C@H](C)CO)C[C@H]2C)cc1,inactive,inactive,inactive
C[C@@H]1CN([C@H](C)CO)C(=O)c2cc(C#Cc3ccccc3)cnc2O[C@H]1CN(C)C(=O)CCN1CCCCC1,inactive,inactive,inactive
C[C@H](CO)N1C[C@H](C)[C@H](CN(C)C(=O)Nc2ccccc2)Oc2c(NS(=O)(=O)c3cn(C)cn3)cccc2C1=O,inactive,inactive,inactive
Cc1ccc(S(=O)(=O)N(C)C[C@H]2Oc3ccc(NS(=O)(=O)c4cccs4)cc3CC(=O)N([C@@H](C)CO)C[C@@H]2C)cc1,inactive,inactive,inactive
C[C@@H]1CCCCO[C@@H](CN(C)C(=O)c2ccncc2)[C@@H](C)CN([C@H](C)CO)C(=O)c2cc(NS(C)(=O)=O)ccc2O1,inactive,inactive,inactive
Cc1ccc(S(=O)(=O)Nc2ccc3c(c2)C(=O)N([C@H](C)CO)C[C@H](C)[C@@H](CN(C)C(=O)c2ccccc2)OCCCC[C@@H](C)O3)cc1,inactive,inactive,inactive
C[C@H]1CN([C@@H](C)CO)C(=O)c2cc(NC(=O)Nc3ccc(C(F)(F)F)cc3)ccc2O[C@@H]1CN(C)Cc1ccc(C(F)(F)F)cc1,active,active,inactive
COC(=O)c1c2oc(c1C(=O)OC)C(=O)N[C@@H](Cc1ccccc1)Cn1cc(nn1)CNC(=O)[C@H](Cc1ccccc1)NC(=O)N[C@@H](COC(=O)NCCCCCC(=O)NO)CC2,inactive,inactive,inactive
CC(C)CCCC(C)C1CCC2C3CC=C4CC(=O)CCC4(C)C3CCC12C (centres undefined),inactive,inactive,inactive
COc1ccc(NC(=O)Nc2ccc3c(c2)C(=O)N([C@H](C)CO)C[C@@H](C)[C@H](CN(C)S(=O)(=O)c2ccc(C)cc2)OCCCC[C@H](C)O3)cc1,inactive,active,inactive
C[C@@H]1CCCCO[C@H](CN(C)C(=O)Nc2ccc(C(F)(F)F)cc2)[C@@H](C)CN([C@@H](C)CO)C(=O)c2cc(NS(=O)(=O)c3ccc(F)cc3)ccc2O1,inactive,inactive,inactive
C[C@@H]1CN([C@H](C)CO)C(=O)c2cccc(NS(=O)(=O)c3ccccc3)c2O[C@H]1CN(C)S(=O)(=O)c1ccccc1,inactive,inactive,inactive
COc1ccccc1NC(=O)N(C)C[C@@H]1Oc2ncc(Br)cc2C(=O)N([C@@H](C)CO)C[C@@H]1C,inactive,inactive,inactive
C[C@@H]1CN([C@H](C)CO)C(=O)c2cc(NS(=O)(=O)c3cn(C)cn3)ccc2O[C@H]1CN(C)Cc1ccc(C(=O)Nc2ccccc2N)cc1,inactive,inactive,inactive
C[C@@H]1CCCCO[C@@H](CN(C)S(C)(=O)=O)[C@H](C)CN([C@@H](C)CO)C(=O)c2cc(NS(=O)(=O)c3cn(C)cn3)ccc2O1,inactive,inactive,inactive
CO[C@H]1[C@H](OC)[C@@H](OC)C[C@@H]2C(=O)O[C@@H](C(=O)O)[C@@H]12,inactive,inactive,inactive
C[C@@H]1CN([C@H](C)CO)C(=O)c2cc(NS(=O)(=O)c3ccc(Cl)cc3)ccc2O[C@@H]1CN(C)Cc1ccc(C(=O)Nc2ccccc2N)cc1,inactive,inactive,inactive
Oc1ccc(OCc2ccccc2)cc1,inactive,inactive,inactive
COCCNC(=O)[C@@H]1[C@@H](CO)[C@@H]2Cn3c(ccc(-c4ccccc4F)c3=O)[C@H]1N2S(C)(=O)=O,inactive,inactive,inactive
Cc1ccnc(NS(=O)(=O)c2ccc(N)cc2)n1,inactive,inactive,inactive
CN1C(=O)c2cc(NC(=O)c3cccs3)ccc2OC[C@@H]2O[C@H](CC(=O)NCCN3CCCCC3)CC[C@H]21,inactive,inactive,inactive
C[C@H](CO)N1C[C@H](C)[C@H](CN(C)C(=O)CN(C)C)Oc2cc(C#CC(C)(C)O)ccc2S1(=O)=O,inactive,inactive,inactive
C[C@H](CO)N1C[C@H](C)[C@H](CN(C)C(=O)Nc2ccc(C(C)(C)C)cc2)OCc2cnnn2CCCC1=O,inactive,inactive,inactive
C[C@@H]1CN([C@@H](C)CO)C(=O)c2cc(NC(=O)NC3CCCCC3)ccc2O[C@H]1CN(C)C(=O)Nc1ccc(C(F)(F)F)cc1,inactive,inactive,inactive
C[C@@H]1CN([C@H](C)CO)C(=O)c2cc(-c3cccc(C#N)c3)cnc2O[C@@H]1CN(C)C(=O)c1cnccn1,inactive,inactive,inactive
C[C@@H]1CN([C@H](C)CO)C(=O)c2cc(NC(=O)Nc3ccc(C(F)(F)F)cc3)ccc2O[C@H]1CN(C)S(C)(=O)=O,inactive,inactive,inactive
Cn1cnc2c1c(=O)[nH]c(=O)n2C,inactive,inactive,inactive
